Source: the RNAGym collection of RNA variant scans (doi:10.7554/elife.90254)
Read counts are not given, so values of variants with three or more changes are uncertain.

B1: OR4K15 (parent)
chain: GUUAACGGUCAUAGGCCAUGGAAACUAGGAGCACCAUUUCGCUGCCAGUGAAGAAAUGAACAAAGAAAAUCUGGGCCAGGCAGGCAUCAAAAGAAAUAGUCUUGCGCUCAACCAGAAAGUCUGUAAUCAUUUUAAGGGUA

Variants of: B1
Assay: self-cleavage, relative activity (ratio to wild type); higher = more cleavage; in vitro, sequencing; the parent is a self-cleaving ribozyme
U26C U38G U130C gave a self-cleavage of 1.24.
For C16U A22U A64G A114C U133C, the self-cleavage was 0.04.
U2C A5G U70C A92G A96G U108C showed a self-cleavage of 0.01.
A18C A92G A98U gave a self-cleavage of 2.02.
Work on U38C A54G U57C A114G yielded a self-cleavage of 0.13.
In the case of G44A A64U A67U A95U C107U, the self-cleavage is reported as 0.02.
With U49C A63C A78G U130C A135G the self-cleavage was 0.14.
For A22G A89G A94G, the self-cleavage was 1.02.
Variant A36C A56G G79U has a self-cleavage of 0.09.
In the case of A5G A66G A116G, the self-cleavage is reported as 0.52.
A60G U72C A98G U139C gave a self-cleavage of 0.14.
Work on U87C A111U U127C yielded a self-cleavage of 0.01.
For A54U A86G U100A, the self-cleavage was 0.66.
Work on A23G A67G A110C yielded a self-cleavage of 0.05.
With A11G U12A A68G U132C A140G the self-cleavage was 1.34.
Variant U9C A33G U103C has a self-cleavage of 0.42.
U87C A117G U127A showed a self-cleavage of 2.43.
For G53A U124C A135G, the self-cleavage was 1.6.
Variant U57C G73A A90G has a self-cleavage of 0.03.
Work on A24U A60G A67G U72A A98U U108C yielded a self-cleavage of 0.
Variant A54U A59G A62G A69G has a self-cleavage of 0.86.
A24G C45U A129G gave a self-cleavage of 0.02.
Work on A11U U26C U37C U39C A59U A91G A96G yielded a self-cleavage of 0.96.
Variant A69G U130C A135C has a self-cleavage of 0.53.
Work on A5G U39A U108A yielded a self-cleavage of 0.1.
A59G A62G G75A showed a self-cleavage of 0.24.
In the case of U12C A23U U39C G73A, the self-cleavage is reported as 0.19.
In the case of A59G A78U U122C, the self-cleavage is reported as 0.54.
U9C A54U A55G A62U showed a self-cleavage of 0.57.
For A13G U72A U122C, the self-cleavage was 0.27.
G75A U120C U130C U132C showed a self-cleavage of 0.05.
Variant A23G A30G A33G G80A U108C U120C has a self-cleavage of 0.
In the case of G1C A118G U132C, the self-cleavage is reported as 0.85.
For A54C A94G A118U, the self-cleavage was 0.
A59U A62G U87C A96G U102C U103C U108A gave a self-cleavage of 0.01.
Variant A59G A60G A126C has a self-cleavage of 0.48.
Variant A18G A36U C105U U108C has a self-cleavage of 0.01.
U2C A33G U38C A96G showed a self-cleavage of 0.93.
A94U U100C U108C U127C gave a self-cleavage of 0.
G58U A66G A92C G138A showed a self-cleavage of 0.9.
A56G A96G A98G U108A showed a self-cleavage of 0.02.
In the case of U19A A55G G106C U139C, the self-cleavage is reported as 0.01.
A23G A52G A69G A96G showed a self-cleavage of 1.18.
A47C A55G U87A A92C showed a self-cleavage of 0.63.
Variant A11U A64G U70C A90G A129G has a self-cleavage of 0.26.
For U39C A60G A82G, the self-cleavage was 0.52.
Variant A111G U122C A134C has a self-cleavage of 0.07.
For A89U U108C A117G, the self-cleavage was 0.01.
A82U U87C A98G U108A A114G U130G gave a self-cleavage of 0.
With A111G A116G U131C the self-cleavage was 0.
Work on A18U U38C A92G U124C yielded a self-cleavage of 0.5.
U3C A62G A78U U102C showed a self-cleavage of 1.48.
In the case of U57C A116G U122C, the self-cleavage is reported as 0.67.
For A33U A36G U57C A60G U102A C109A A126G, the self-cleavage was 0.04.
With A23U A30G A47G A78U U127C A140G the self-cleavage was 0.
With U39C G53U A56G A60G U103C A118C the self-cleavage was 0.3.
U49C A60G A114G showed a self-cleavage of 0.14.
For A55C A62U G74A U132C, the self-cleavage was 0.16.
With U19A A64G A96G the self-cleavage was 1.11.
U38C C42U A59G showed a self-cleavage of 1.68.
With A30G A51G A69G U87C U122C A135G the self-cleavage was 0.44.
G44A A47U A86U A110U gave a self-cleavage of 2.47.
With A5G U39A A62G A116G the self-cleavage was 0.74.
For U37C A60G U87C, the self-cleavage was 0.39.
For U43A U122G U131C, the self-cleavage was 0.87.
For U38C U57C U132C A135G, the self-cleavage was 1.03.
In the case of U43C A60G A78G U133A, the self-cleavage is reported as 0.24.
In the case of A52G U87C U97C A118G, the self-cleavage is reported as 0.9.
C6A A82G A91U U120C A126C A140G gave a self-cleavage of 0.
A95G G106A A116G A117U showed a self-cleavage of 0.
Work on A60G A67U A118G yielded a self-cleavage of 0.61.
Work on U9A A13U A22G U57C yielded a self-cleavage of 0.92.
U70C U130C U131C showed a self-cleavage of 0.21.
U9A A66G A95G U108C A114C showed a self-cleavage of 0.01.
With U9A A33G C128U the self-cleavage was 0.75.
With A5U A33U A82G A111G U120C the self-cleavage was 0.02.
A23G C45U A51G G74A showed a self-cleavage of 0.22.
For A33U A92G U132C, the self-cleavage was 0.54.
With A5G A23U U100C A118G the self-cleavage was 1.11.
For A22G A52G A56C A68G A78G, the self-cleavage was 0.48.
For U9C C10U A69G U132C, the self-cleavage was 1.61.
Variant A47G A89G U103C C105A A110U G138A has a self-cleavage of 0.01.
Variant U9C U39A G119A U122C has a self-cleavage of 2.5.
With A11G A22U A56G A118G U127C the self-cleavage was 0.68.
With G50A U103A A135G A140G the self-cleavage was 0.6.
Variant G41A A118G U127C has a self-cleavage of 0.65.
U9C A60G A69G U70C showed a self-cleavage of 0.08.
Variant A54G A67G A94G has a self-cleavage of 0.86.
With U102C A110G A117G the self-cleavage was 0.13.
In the case of A5G U19C A33U U37C, the self-cleavage is reported as 1.13.
Work on A4G U72A A116G yielded a self-cleavage of 0.09.
In the case of C42U A90G U103C U120C, the self-cleavage is reported as 0.13.
A24U A64G A117G U130C showed a self-cleavage of 0.7.
U39C A63G A126G gave a self-cleavage of 1.18.
Variant A11C A62G A67G C85G has a self-cleavage of 0.7.
For A27G A30U A62G A64G A82G A95G U130C, the self-cleavage was 1.28.
Work on A67G A69G U122C yielded a self-cleavage of 0.67.
Work on A30G U39C A60G A90G yielded a self-cleavage of 0.4.
Variant A62G A114G A117G has a self-cleavage of 0.12.
Work on U2A A51G A89G A116U U122C A134G yielded a self-cleavage of 0.14.
For A56G A92G A117G U131C, the self-cleavage was 1.4.
A18U A64G U102C A134G showed a self-cleavage of 1.94.
With A30G U38A A135U the self-cleavage was 1.49.
With A55U A95G A116G the self-cleavage was 1.84.
With U12C A69U A90G U103C A118G the self-cleavage was 0.06.
With U2C C81U A90G A116U the self-cleavage was 0.03.
With U39C A96G A117C the self-cleavage was 0.65.
In the case of A30G U38C A55G G119U U139C, the self-cleavage is reported as 2.04.
A54U U72C G74A showed a self-cleavage of 0.31.
U37C A90G U122C U139C gave a self-cleavage of 0.76.
U37C A62G A118G gave a self-cleavage of 0.57.
Variant A91U U100C A116G has a self-cleavage of 2.69.
Work on U38C A51G U72C A117U yielded a self-cleavage of 0.17.
Work on A33U A55G U100C U127C yielded a self-cleavage of 1.81.
In the case of A22G A96G U103C, the self-cleavage is reported as 1.65.
A5G A13U A24G G28A A47C A68G A126G gave a self-cleavage of 0.54.
Variant U39A C107U U124A U132C has a self-cleavage of 0.
With G44A A47G U57C A94G the self-cleavage was 0.42.
U12C A22U A56G U57A U100A A116G gave a self-cleavage of 0.1.
Variant U12C A23U A27G A51U A62G C112U U130C has a self-cleavage of 0.03.
A11G U43A A47G A92G gave a self-cleavage of 1.24.
For A64G U72A A96C U127C U131C, the self-cleavage was 0.07.
With U43C U57A A96G A117G the self-cleavage was 1.42.
Work on C105U A114G A118G U133C yielded a self-cleavage of 0.01.
U9C A60G A68G gave a self-cleavage of 1.37.
A67G U87G U97C A140G showed a self-cleavage of 0.74.
Work on U12G A89G U130C U131C yielded a self-cleavage of 0.97.
With U57C A118G U124C A126G the self-cleavage was 0.86.
A4G U43C U100C U124C gave a self-cleavage of 1.23.
With A51G A56U U103C the self-cleavage was 0.46.
Variant A23G G53A U70C has a self-cleavage of 0.48.
In the case of U2A A94G A114G, the self-cleavage is reported as 1.02.
Variant A11U A22G U102C has a self-cleavage of 1.44.
For A30G A86G A96G A116C, the self-cleavage was 0.18.
Work on A56G G73A A82C A135G yielded a self-cleavage of 0.29.
A5G A22G A92G showed a self-cleavage of 2.42.
G58A A62G U87C A89G U120A U127A showed a self-cleavage of 0.17.
For A52G G58U A95G C113U, the self-cleavage was 0.07.
Variant A52G G74A A91G has a self-cleavage of 0.18.
Work on U9C A56G G83A A95G yielded a self-cleavage of 0.55.
Variant U12A A56G A111G has a self-cleavage of 0.
A54G A68G A91G showed a self-cleavage of 1.29.
Variant A55G A67G A78U has a self-cleavage of 0.02.
U43C A54G U87C A92G gave a self-cleavage of 1.02.
For G7A C35A A89U U108A U122C, the self-cleavage was 0.
Work on A56G U57C A126G yielded a self-cleavage of 1.38.
For A5G A22G A55U, the self-cleavage was 0.76.
With A5U U37C U43C U49C G73A U108C U131C the self-cleavage was 0.02.
A94G A116G A134G U139C gave a self-cleavage of 1.43.
A62G A68G A111G U122C showed a self-cleavage of 0.01.
A68G A117G U127C gave a self-cleavage of 1.08.
For A30G A90G A96G C113G A114C, the self-cleavage was 0.01.
A36G A47G A95C gave a self-cleavage of 0.59.
U9C G21A A62G A63U U124A gave a self-cleavage of 0.7.
Variant U72C A94G A135G has a self-cleavage of 0.19.
For A62G A78U U127C U130C, the self-cleavage was 0.03.
G15C U39A A56G A125G showed a self-cleavage of 0.68.
In the case of A11G A13G A33U U39C A117G A135G, the self-cleavage is reported as 1.44.
Variant U9C A18G A51U has a self-cleavage of 1.11.
Work on U12C A13G A33U A51G A54G U108C U122A yielded a self-cleavage of 0.
A54G U72C U103C gave a self-cleavage of 0.11.
Variant A60G G74U G80U A96G U100C U108A U120C has a self-cleavage of 0.
A54G A56G A94G U124A gave a self-cleavage of 0.55.
Variant A24G G50A C88A U100C has a self-cleavage of 2.03.
For A23G A36U A60G, the self-cleavage was 0.64.
With A52G A90G A94G A96G the self-cleavage was 0.64.
Work on U9C A89U A129G yielded a self-cleavage of 0.63.
